# Laboratory results: PubChem BioAssay (Tox21)
# Where “and” joins values, the source holds several entries; their conditions need not be identical. Equal values may be shown once. The shares of active, inactive and inconclusive entries below differ from those in the screen. For part of these data: A potency beside an inconclusive call is a rough fit, not a confirmed value. Where a structure was tested more than once in an assay, its records may differ in their call. Calls of active or inactive are those of the source. Unless noted, calls come from the whole dose curve; as a rule, active = well fitted curve in the direction sought with a large enough effect in the repeat runs; inconclusive = weak or mixed curves; inactive = no such curve, though single readings can be large; an effect the other way counts as inactive or inconclusive.
# Legend:
# [1] = biological target: Estrogen receptor (Homo sapiens) (UniProt P03372); assay: qHTS assay to identify small molecule agonists of the estrogen receptor alpha (ER-alpha) signaling pathway using the BG1 cell line (AID 743079); details: BG1Luc4E2 cells, ERE-luciferase agonist, 22 h; activation: at 70.3 µM (top of the series) unless noted; note: nearly all actives have a fitted effect of over 20% in size; note: potency is the fitted concentration of half-maximal effect
# Chain of UniProt P03372 (P03372 whole entry, looked up): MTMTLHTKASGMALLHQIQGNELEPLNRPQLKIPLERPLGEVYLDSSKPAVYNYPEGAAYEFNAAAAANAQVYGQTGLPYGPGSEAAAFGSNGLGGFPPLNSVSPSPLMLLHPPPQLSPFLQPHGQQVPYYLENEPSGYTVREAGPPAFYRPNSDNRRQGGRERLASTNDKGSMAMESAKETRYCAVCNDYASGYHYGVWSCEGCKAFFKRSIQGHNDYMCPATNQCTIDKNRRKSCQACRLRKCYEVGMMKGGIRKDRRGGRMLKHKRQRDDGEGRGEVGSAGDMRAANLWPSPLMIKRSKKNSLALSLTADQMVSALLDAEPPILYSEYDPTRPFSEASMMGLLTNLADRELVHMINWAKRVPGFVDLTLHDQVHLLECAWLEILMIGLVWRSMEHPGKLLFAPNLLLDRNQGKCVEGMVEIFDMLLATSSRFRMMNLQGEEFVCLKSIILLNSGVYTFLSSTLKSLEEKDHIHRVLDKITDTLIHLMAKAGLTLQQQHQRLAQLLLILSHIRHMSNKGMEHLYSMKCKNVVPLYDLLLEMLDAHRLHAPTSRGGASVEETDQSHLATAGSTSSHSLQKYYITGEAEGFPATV
# [2] = qHTS assay to identify small molecule agonists of H2AX (AID 1224845; active = well fitted activation curve with a large enough effect in the signal ratio in the repeat runs, not every such curve was filed as active; inconclusive = weak or mixed curves; the % refers to the signal ratio; note: potency is the fitted concentration of half-maximal effect; for activation (H2AX phosphorylation): % is set by controls: 0 for no effect and ±100 for the full control effect); details: CHO-K1 phospho-H2AX Ser139 HTRF, 3 h; activation (H2AX phosphorylation): at 154 µM (top of the series) unless noted
# How it was run: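 Wild-type CHO-K1 cells, plated overnight, exposed 3hr at 37C to 15 concentrations (0.76% DMSO final). Lysed, then HTRF anti-pH2AX (S139) cryptate and anti-H2AX-d2 antibodies, 24 hr room temperature; 665/620 nm emission read.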
# [3] = qHTS assay for identifying genotoxic compounds that show differential cytotoxicity against isogenic chicken DT40 cell lines with known DNA damage response pathways - Rad54/Ku70 mutant cell line (AID 743015); details: DT40 Rad54/Ku70 mutant viability, CellTiter-Glo, 40 h; activity change, negative = cytotoxicity: at 66.8 µM (top of the series); note: nearly all actives have a fitted effect of over 60% in size; note: potency is the fitted concentration of half-maximal effect; for activity change, negative = cytotoxicity: % is set by controls: 0 for no effect and ±100 for the full control effect
# [4] = qHTS assay to identify small molecule antagonists of the peroxisome proliferator-activated receptor gamma (PPARg) signaling pathway - cell viability counter screen (AID 743194); details: PPARg-bla HEK293H viability, CellTiter-Glo luminescence, 17 h; Potency: co-treated with 50 nM rosiglitazone unless noted; activity change, negative = cytotoxicity: at 62.6 µM (top of the series), co-treated with 50 nM rosiglitazone unless noted; note: potency is the fitted concentration of half-maximal effect; nearly all actives have a fitted effect of over 55% in size
# How it was run: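 Cytotoxicity counter screen in PPARg-bla HEK293H cells, same wells as reporter assay. Compounds plus 50 nM rosiglitazone (final) for 17 h at 37 C, then viability read by CellTiter-Glo luminescence.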
# [5] = biological target: Peroxisome proliferator-activated receptor delta (Homo sapiens) (UniProt Q03181); assay: qHTS assay to identify small molecule antagonists of the peroxisome proliferator-activated receptor delta (PPARd) signaling pathway (AID 743215; active = well fitted inhibition curve with a large enough effect in the signal ratio in the repeat runs, not every such curve was filed as active; inconclusive = weak or mixed curves, or effect the other way; inactive = no such curve, though single readings can be large or run the other way; the % refers to the signal ratio;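 note: cells stimulated with agonist L165041 at 300 nM final during compound exposure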; note: potency is the fitted concentration of half-maximal effect; for ratio activity, negative = inhibition: % is set by controls: 0 for no effect and ±100 for the full control effect); details: HEK293H PPARd-UAS-bla, beta-lactamase FRET ratio, antagonist, 17 h; ratio activity, negative = inhibition: at 62 µM (top of the series) unless noted
# Chain of UniProt Q03181 (Q03181 whole entry, looked up): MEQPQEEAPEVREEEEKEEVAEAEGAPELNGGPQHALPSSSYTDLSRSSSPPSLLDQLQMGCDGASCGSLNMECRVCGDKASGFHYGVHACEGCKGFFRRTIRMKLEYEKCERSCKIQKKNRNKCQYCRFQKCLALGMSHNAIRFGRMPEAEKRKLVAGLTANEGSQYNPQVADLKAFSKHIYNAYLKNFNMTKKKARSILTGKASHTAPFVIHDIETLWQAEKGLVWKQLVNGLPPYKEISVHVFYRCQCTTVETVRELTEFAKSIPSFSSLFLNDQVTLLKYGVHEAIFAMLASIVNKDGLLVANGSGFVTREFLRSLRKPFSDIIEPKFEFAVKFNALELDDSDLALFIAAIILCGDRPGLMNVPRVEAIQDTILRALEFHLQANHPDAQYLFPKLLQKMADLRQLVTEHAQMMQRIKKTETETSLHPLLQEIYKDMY
# How it was run: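 Plated HEK293H PPARd-bla cells rested 5 h at 37 C and 5% CO2. Compound, then agonist L165041 at 300 nM final, was added; 17 h at 37 C followed. Substrate loading, 2 h room temperature, fluorescence measured.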
# [6] = biological target: Estrogen receptor beta (Homo sapiens) (UniProt Q92731); assay: qHTS assay to identify small molecule agonists of the estrogen receptor beta (ER-beta) signaling pathway (AID 1259377; active = well fitted activation curve with a large enough effect in the signal ratio in the repeat runs, not every such curve was filed as active; inconclusive = weak or mixed curves, or effect the other way; the % refers to the signal ratio; note: potency is the fitted concentration of half-maximal effect); details: ER-beta-UAS-bla HEK293T, beta-lactamase FRET ratio, 16 h; activation: at 92.4 µM (top of the series) unless noted
# Chain of UniProt Q92731 (Q92731 whole entry, looked up): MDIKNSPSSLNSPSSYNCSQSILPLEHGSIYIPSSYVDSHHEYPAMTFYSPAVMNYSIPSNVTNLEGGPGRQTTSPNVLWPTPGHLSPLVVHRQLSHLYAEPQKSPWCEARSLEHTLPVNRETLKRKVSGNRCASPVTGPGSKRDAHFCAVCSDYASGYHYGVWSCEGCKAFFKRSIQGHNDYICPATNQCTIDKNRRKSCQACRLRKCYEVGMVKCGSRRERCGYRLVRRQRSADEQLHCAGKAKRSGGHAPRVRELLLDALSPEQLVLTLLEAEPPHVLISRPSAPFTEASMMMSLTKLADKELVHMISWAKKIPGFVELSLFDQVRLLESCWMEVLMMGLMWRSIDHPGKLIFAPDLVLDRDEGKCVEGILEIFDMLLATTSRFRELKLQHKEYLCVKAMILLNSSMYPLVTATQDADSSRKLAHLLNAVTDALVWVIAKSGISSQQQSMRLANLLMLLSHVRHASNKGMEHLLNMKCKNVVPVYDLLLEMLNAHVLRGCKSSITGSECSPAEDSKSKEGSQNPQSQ
# How it was run: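 ER-beta-UAS-bla HEK293T cells in medium with 2% charcoal-stripped FBS were exposed to compounds for 16 h at 37C. Beta-lactamase reporter activity was read as fluorescence after 2 h with LiveBLAzer B/G FRET substrate at room temperature.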
# [7] = Caspase-3/7 induction in CHO-K1 cells by small molecules, qHTS cell viability counter screen (AID 1346979); note: nearly all actives have a fitted effect of over 35% in size; note: potency is the fitted concentration of half-maximal effect
# How it was run: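 Wild-type CHO-K1 cells (1,500/well) treated with compound after 5 h plating; after 16 h at 37C, viability read as CellTiter-Fluor fluorescence following 1 h reagent incubation, in the same wells as the caspase read.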
# [8] = biological target: Peroxisome proliferator-activated receptor gamma (Homo sapiens) (UniProt P37231); assay: qHTS assay to identify small molecule agonists of the peroxisome proliferator-activated receptor gamma (PPARg) signaling pathway (AID 743094; active = well fitted activation curve with a large enough effect in the signal ratio in the repeat runs, not every such curve was filed as active; inconclusive = weak or mixed curves, or effect the other way; inactive = no such curve, though single readings can be large or run the other way; the % refers to the signal ratio; note: % is set by controls: 0 for no effect and ±100 for the full control effect); details: HEK293H PPARg-UAS-bla, beta-lactamase FRET ratio, 17 h
# Chain of UniProt P37231 (P37231 whole entry, looked up): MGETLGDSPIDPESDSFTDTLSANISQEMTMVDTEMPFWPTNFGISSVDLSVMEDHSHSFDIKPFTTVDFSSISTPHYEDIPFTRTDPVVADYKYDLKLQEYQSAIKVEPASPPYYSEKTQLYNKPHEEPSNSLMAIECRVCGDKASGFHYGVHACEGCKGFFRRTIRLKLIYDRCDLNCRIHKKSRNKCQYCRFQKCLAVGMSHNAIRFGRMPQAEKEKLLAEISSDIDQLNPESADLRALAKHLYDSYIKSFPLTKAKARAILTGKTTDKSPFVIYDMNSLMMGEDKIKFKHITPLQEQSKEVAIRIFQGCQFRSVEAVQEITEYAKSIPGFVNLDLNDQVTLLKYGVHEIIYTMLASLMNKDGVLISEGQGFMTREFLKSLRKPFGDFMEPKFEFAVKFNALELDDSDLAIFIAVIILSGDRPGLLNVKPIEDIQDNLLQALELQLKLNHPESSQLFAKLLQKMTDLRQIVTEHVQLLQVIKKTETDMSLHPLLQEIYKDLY
# How it was run: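 Reporter activation was scored by fluorescence of cleaved LiveBLAzer B/G substrate (1 h, room temperature) in PPARg-bla HEK293H cells previously treated 17 h at 37C with DMSO-dissolved compounds.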
# [9] = qHTS RealTime-Glo MT Cell Viability Assay in HEK293 cells - 32 hour (AID 1224868); note: nearly all actives have a fitted effect of over 50% in size; note: potency is the fitted concentration of half-maximal effect
# How it was run: (§1)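 Tox21 10K qHTS, HEK293, 600 cells/well, RealTime-Glo reagent co-dispensed with cells; 5 h preincubation, compound by pintool, 37 C, luminescence at 0–40 h.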
# [10] = qHTS RealTime-Glo MT Cell Viability Assay in HEK293 cells - 24 hour (AID 1224886); note: nearly all actives have a fitted effect of over 50% in size; note: potency is the fitted concentration of half-maximal effect
# How it was run: as §1
# [11] = qHTS assay for identifying genotoxic compounds that show differential cytotoxicity against isogenic chicken DT40 cell lines with known DNA damage response pathways - wild type cell line (AID 743012); details: DT40 wild type chicken cells viability, CellTiter-Glo, 40 h; activity change, negative = cytotoxicity: at 68.4 µM (top of the series) unless noted; note: nearly all actives have a fitted effect of over 60% in size; note: potency is the fitted concentration of half-maximal effect
# How it was run: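 Luminescent ATP viability signal (CellTiter-Glo, 30 min RT) recorded after wild type DT40 cells were incubated with compounds for 40 h at 37 C/5% CO2.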
# [12] = biological target: Progesterone receptor (Homo sapiens) (UniProt P06401); assay: qHTS assay to identify small molecule agonists of the progesterone receptor (PR) signaling pathway (AID 1346784; calls by dose curve; note: nearly all actives have a fitted effect of over 30% in size; note: potency is the fitted concentration of half-maximal effect); details: PR-UAS-bla HEK293T, beta-lactamase FRET ratio, 16 h; activation: at 92.4 µM (top of the series) unless noted
# Chain of UniProt P06401 (P06401 whole entry, looked up): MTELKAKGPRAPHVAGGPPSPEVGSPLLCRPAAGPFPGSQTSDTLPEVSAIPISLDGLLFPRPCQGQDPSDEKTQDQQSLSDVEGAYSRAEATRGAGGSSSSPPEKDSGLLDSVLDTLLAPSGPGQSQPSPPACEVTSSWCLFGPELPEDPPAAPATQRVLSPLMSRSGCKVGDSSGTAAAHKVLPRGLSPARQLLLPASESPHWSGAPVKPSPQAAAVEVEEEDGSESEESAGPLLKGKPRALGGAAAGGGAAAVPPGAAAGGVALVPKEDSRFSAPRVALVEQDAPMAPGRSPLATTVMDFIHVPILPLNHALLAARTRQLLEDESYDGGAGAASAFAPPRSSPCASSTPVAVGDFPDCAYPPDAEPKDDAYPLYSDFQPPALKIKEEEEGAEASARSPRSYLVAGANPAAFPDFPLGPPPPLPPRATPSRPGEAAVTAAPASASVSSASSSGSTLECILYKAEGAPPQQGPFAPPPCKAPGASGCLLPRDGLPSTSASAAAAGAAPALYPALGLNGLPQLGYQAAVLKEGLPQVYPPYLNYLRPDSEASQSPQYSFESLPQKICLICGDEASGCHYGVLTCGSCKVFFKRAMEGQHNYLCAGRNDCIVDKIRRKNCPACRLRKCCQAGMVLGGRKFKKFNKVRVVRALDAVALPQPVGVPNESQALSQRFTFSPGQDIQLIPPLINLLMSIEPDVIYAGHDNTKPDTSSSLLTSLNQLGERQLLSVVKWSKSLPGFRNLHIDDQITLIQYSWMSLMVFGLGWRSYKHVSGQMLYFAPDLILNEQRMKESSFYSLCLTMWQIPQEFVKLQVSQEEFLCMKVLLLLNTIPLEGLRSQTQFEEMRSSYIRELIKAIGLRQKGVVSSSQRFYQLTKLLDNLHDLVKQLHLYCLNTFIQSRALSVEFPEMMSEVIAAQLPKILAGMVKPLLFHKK
# How it was run: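 PR-UAS-bla HEK 293T cells (beta-lactamase reporter under UAS) in 2% charcoal-stripped FBS, dosed with 23 nL compound after 6 hr, incubated 16hr at 37C. LiveBLAzer B/G FRET substrate added, fluorescence read after 2 hours.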
# [13] = qHTS RealTime-Glo MT Cell Viability Assay in HEK293 cells - 8 hour (AID 1224887); note: potency is the fitted concentration of half-maximal effect; nearly all actives have a fitted effect of over 50% in size
# How it was run: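 600 HEK293 cells per well, dispensed already mixed with RealTime-Glo MT reagents. Compound dosing came 5 h later. The same wells were read for luminescence at 0, 8, 16, 24, 32 and 40 h of exposure at 37 C.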
# [14] = qHTS assay to identify small molecule agonists of the peroxisome proliferator-activated receptor delta (PPARd) signaling pathway - cell viability counter screen (AID 743211); details: PPARd-bla HEK293H viability, CellTiter-Glo luminescence, 17 h; activity change, negative = cytotoxicity: at 62.6 µM (top of the series); note: nearly all actives have a fitted effect of over 55% in size; note: potency is the fitted concentration of half-maximal effect
# How it was run: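 PPARd-bla HEK293H cells (3000/well) were pre-incubated 5 h at 37 C, then exposed to compound for 17 h at 37 C. After 2 h with LiveBLAzer substrate, CellTiter-Glo was added to the same wells; luminescence read after 30 min at room temperature.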
# [15] = qHTS assay to identify small molecule agonists of H2AX - cell viability counter screen (AID 1224847; calls by dose curve; note: nearly all actives have a fitted effect of over 30% in size; note: potency is the fitted concentration of half-maximal effect)
# How it was run: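 CHO-K1 cells plated overnight at 37C, then exposed 3 h at 37C to compounds at 15 concentrations (0.76% DMSO final). Viability by CellTiter-Glo luminescence after 30 min at room temperature.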
# [16] = A CellTox Green Cytotoxicity Assay to monitor cytotoxicity in HEK293 cells - 40 hour (AID 1224871); note: nearly all actives have a fitted effect of over 45% in size; note: potency is the fitted concentration of half-maximal effect
# How it was run: (§2)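 Dead-cell fluorescence measured kinetically: asymmetric cyanine dye, HEK293, 600 cells/well, 5 h settle, 23 nL cpd/DMSO, 37 C, reads 0–40 h every 8 h.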
# [17] = qHTS assay to identify small molecule agonists of the estrogen receptor beta (ER-beta) signaling pathway - cell viability counter screen (AID 1259380); note: nearly all actives have a fitted effect of over 30% in size; note: potency is the fitted concentration of half-maximal effect
# How it was run: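 Steps: plate ER-beta-UAS-bla HEK293T cells, rest 6 hr; add compounds in DMSO; incubate 16 hr at 37C, 5% CO2; add FRET substrate 2 hr; add CellTiter-Glo, wait 30 min at room temperature; read luminescence.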
# [18] = A CellTox Green Cytotoxicity Assay to monitor cytotoxicity in HEK293 cells - 32 hour (AID 1224881); note: nearly all actives have a fitted effect of over 40% in size; note: potency is the fitted concentration of half-maximal effect
# How it was run: as §2
# [19] = qHTS assay to identify small molecule antagonists of the estrogen receptor alpha (ER-alpha) signaling pathway - cell viability counter screen (AID 743074; calls by dose curve;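 note: HEK293 cells carrying ER-alpha-UAS-bla reporter stimulated with 17beta-estradiol; % is set by controls: 0 for no effect and ±100 for the full control effect; nearly all actives have a fitted effect of over 45% in size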)
# [20] = activation: at 57 µM (top of the series) unless noted
# Tags give direction and shape of the fitted curve or compound fluorescence and quenching.
smiles,measurement,setting,value
COc1nc(NC(C)C)nc(NC(C)C)n1,Potency,[1],"inconclusive: 0.0061 µM [activator, full curve, poor fit]"
same,Potency,[2],inactive
CCOP(=O)(OCC)OCC,Potency,[3],inactive
same,Potency,[4],"inconclusive: 0.429 µM [cytotoxic, full curve, poor fit]"
same,"ratio activity, negative = inhibition",[5],inconclusive: -3.51% and inconclusive: 0.79%
same,Potency,[6],"inconclusive: 26.8 µM [falling, full curve, poor fit]"
same,Potency,[7],"inconclusive: 68.6 µM [cytotoxic, single point]"
O=NN1CCOCC1,Potency,[8]; [20],inactive
same,Potency,[5],"inconclusive: 8.31 µM [falling, single point]"
same,Potency,[9],inactive and active: 2.19 µM
same,Potency,[10],active: 2.45 µM
COc1ccc(CO)cc1,"activity change, negative = cytotoxicity",[11],inconclusive: 4.81%
same,Potency,[12],"inconclusive: 109 µM [rising, partial curve, poor fit]"
CCC(=O)c1ccc(Cl)cc1,Potency,[8]; [20],inactive
same,Potency,[9],"inconclusive: 0.195 µM [cytotoxic, single point]"
same,Potency,[13],"inconclusive: 0.195 µM [cytotoxic, single point]"
same,Potency,[7],inactive
CCCCOP(=O)(O)OCCCC,Potency,[1],active: 24.3 µM
same,Potency,[14],inactive
same,Potency,[2],"inconclusive: 127 µM [rising, single point]"
same,Potency,[15],"inconclusive: 113 µM [rising, partial curve, poor fit]"
same,Potency,[16],inactive
same,activation,[6],inconclusive: 13.6%
same,Potency,[17],inactive
COC[C@H](C)N(C(=O)CCl)c1c(C)csc1C,Potency,[16],inactive
same,Potency,[17],inactive
same,Potency,[7],inactive
O=P(O)(Oc1ccccc1)Oc1ccccc1,Potency,[11],inactive
same,Potency,[10],"inconclusive: 49 µM [rising, partial curve, poor fit]"
same,Potency,[6],inactive
Cc1cccc(C#N)c1,Potency,[1],active: 68.2 µM
same,Potency,[18],inactive
same,activation,[6],inconclusive: 12.7%
CSC(C)(C)/C=N/O,Potency,[1],"inconclusive: 61.1 µM [activator, partial curve, poor fit]"
same,Potency,[9],inactive
same,Potency,[17],"inconclusive: 24.3 µM [rising, single point]"
same,Potency,[7],inactive
CCCC[n+]1ccccc1C,Potency,[11],"inconclusive: 27.8 µM [rising, single point]"
same,Potency,[3],inactive
same,Potency,[14],"inconclusive: 4.37 µM [cytotoxic, full curve, poor fit]"
same,Potency,[12],inactive
CC(C)Nc1nc(Cl)nc(NC(C)C)n1,Potency,[11],"inconclusive: 48.5 µM [rising, partial curve, poor fit]"
same,activation,[1],inconclusive: -9.91% [phenotype inactive]
same,activation,[8]; [20],inconclusive: -3.43%
same,activation,[8]; at 57 µM (top of the series),inactive: -1.54%
same,Potency,[14],inactive
Cl,Potency,[3],"inconclusive: 68.6 µM [cytotoxic, single point]"
same,Potency,[15],"inconclusive: 17.9 µM [cytotoxic, single point]"
C=CC=O,Potency,[9],"inconclusive: 50.1 µM [rising, partial curve, poor fit]"
same,Potency,[12],inactive
O=C(NC(=O)c1c(F)cccc1F)Nc1cc(Cl)c(F)c(Cl)c1F,Potency,[3],"inconclusive: 5.31 µM [cytotoxic, full curve]"
same,Potency,[2],inactive
Oc1ccc(Cl)cc1Cl,Potency,[3],"inconclusive: 54.5 µM [rising, partial curve, poor fit]"
same,Potency,[9],"inactive and inconclusive: 21.9 µM [cytotoxic, single point]"
same,Potency,[10],"inconclusive: 21.9 µM [cytotoxic, single point]"
same,Potency,[13],"inconclusive: 21.9 µM [cytotoxic, single point]"
same,Potency,[17],"inconclusive: 15.4 µM [cytotoxic, partial curve, poor fit]"
CC(C)C1(C)N=C(c2ncccc2C(=O)O)NC1=O (stereo not drawn),Potency,[11],"inconclusive: 68.4 µM [cytotoxic, single point]"
same,Potency,[15],inactive
CCCN,Potency,[3],inactive
same,Potency,[2],inactive
same,Potency,[7],inactive
ClC1=C(Cl)[C@]2(Cl)[C@@H]3[C@@H](Cl)[C@H](Cl)C[C@@H]3[C@@]1(Cl)C2(Cl)Cl,Potency,[16],"inconclusive: 21.9 µM [activator, single point]"
same,Potency,[18],"inconclusive: 21.9 µM [activator, single point]"
COC(=O)c1ccccc1S(=O)(=O)NC(=O)Nc1nc(C)cc(C)n1,Potency,[19],inactive
same,Potency,[2],inactive
same,Potency,[15],inactive
CCCCCCCCCCCC#N,Potency,[16],active: 40.3 µM
same,Potency,[18],inactive and active: 40.3 µM
same,Potency,[10],inactive
same,Potency,[7],"inconclusive: 69.4 µM [rising, partial curve, poor fit]"
C=C(C)CN(CC)c1c([N+](=O)[O-])cc(C(F)(F)F)cc1[N+](=O)[O-],Potency,[4],"inconclusive: 21.9 µM [cytotoxic, single point]"
same,Potency,[15],"inconclusive: 127 µM [cytotoxic, single point]"
same,Potency,[18],inactive
same,Potency,[13],"inconclusive: 21.9 µM [cytotoxic, partial curve]"
same,Potency,[17],inactive
CCCCCCCCP(=O)(O)O,Potency,[11],inactive
same,Potency,[5],inactive
